# Measured values taken from the supplement of paper PMC11060735.
# Structures can show the parent of a compound that is named as a salt. The campaign covered roughly 1,800 compounds. About 50 (3%) showed activity. Some of the results follow.
# Test system: mouse p16Ink4a+/- lung fibroblasts (INKBRITE, bleomycin-injured)
# Assay: percentage of GFP+ (p16Ink4a+) fibroblasts among all cells in well; higher = less depletion of p16Ink4a+ cells, active = 20 or less
# Settings: 1 µM; 3 days
# 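Also: fibroblasts sorted 14 days after bleomycin, GFP+ and GFP− mixed 1:1 in 384-well plates (GFP− as in-well control), imaged after Hoechst and NucView530 staining, reference wells lacked compound.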
row,SMILES,percentage of GFP+
1,O=C1NC(=O)C(=Cc2ccc3c(c2)OC(F)(F)O3)S1 (stereo in doubt),inactive: 49.6%
2,C#C[C@]1(O)CC[C@H]2[C@@H]3CCC4=CC(=O)CC[C@@H]4[C@H]3CC[C@@]21C [Norethisterone],inactive: 52.3%
3,Cc1ccc(-n2nc(C(C)(C)C)cc2NC(=O)Nc2ccc(OCCN3CCOCC3)c3ccccc23)cc1 [Doramapimod],inactive: 47.1%
4,CCCN(CCC)S(=O)(=O)c1ccc(C(=O)O)cc1 [Probenecid],inactive: 44.3%
5,Cc1cc(Nc2ncc(Cl)c(Nc3ccccc3S(=O)(=O)C(C)C)n2)c(OC(C)C)cc1C1CCNCC1 [Ceritinib],inactive: 46.8%
6,OC[C@@H]1CC[C@H](n2cnc3c(O)ncnc32)O1 [Didanosine],inactive: 48.5%
7,Cc1cc(C(=O)NOCCO)c(Nc2ccc(I)cc2F)n(C)c1=O,inactive: 21.2%
8,CC(C)c1onc(-c2c(Cl)cccc2Cl)c1COc1ccc(/C=C/c2cccc(C(=O)O)c2)c(Cl)c1,inactive: 37.4%
9,COCCOc1ccc2c(c1)ncn2-c1ccc2cccc(N3CCC(N)CC3)c2n1,inactive: 29.2%
10,CCCC(=O)O[C@]1(C(=O)COC(C)=O)CC[C@H]2[C@@H]3C[C@H](F)C4=CC(=O)C=C[C@]4(C)[C@@]3(F)[C@@H](O)C[C@@]21C [Difluprednate],inactive: 50%
11,Nc1c(CC(=O)O)cccc1C(=O)c1ccc(Br)cc1 [Bromfenac],inactive: 46.4%
12,CCOC(=O)[C@H](CCc1ccccc1)N[C@@H](C)C(=O)N1C(=O)N(C)C[C@H]1C(=O)O [Imidapril HCl],inactive: 43.4%
13,O=C(Nc1cccc(Cl)c1)Nc1ncc(CCNc2ncnc3ccsc23)s1 [SNS-314 Mesylate],inactive: 34.9%
14,O=C(O)COCCN1CCN(C(c2ccccc2)c2ccc(Cl)cc2)CC1 (stereo not given) [Cetirizine],inactive: 46.1%
15,CC(C)c1noc(N2CCC(COc3ccc(-c4ccc(S(C)(=O)=O)cc4)nc3)CC2)n1,inactive: 37.2%
16,Cc1cc(=O)n(-c2ccccc2)n1C [Antipyrine],inactive: 48.2%
17,CCN(CC)CC#CCOC(=O)C(O)(c1ccccc1)C1CCCCC1 (stereo not given) [Oxybutynin],inactive: 50.9%
18,C=CC[C@@H]1/C=C(\C)C[C@H](C)C[C@H](OC)[C@H]2O[C@@](O)(C(=O)C(=O)N3CCCC[C@H]3C(=O)O[C@H](/C(C)=C/[C@@H]3CC[C@@H](O)[C@H](OC)C3)[C@H](C)[C@@H](O)CC1=O)[C@H](C)C[C@@H]2OC [Tacrolimus],inactive: 38.6%
19,COC(=O)N[C@H](C(=O)N[C@@H](Cc1ccccc1)[C@@H](O)CN(Cc1ccc(-c2ccccn2)cc1)NC(=O)[C@@H](NC(=O)OC)C(C)(C)C)C(C)(C)C [Atazanavir],inactive: 37.3%
20,O=C(O)CSCC(=O)NC1CCSC1=O (stereo not given) [Erdosteine],inactive: 35.4%
21,O=C1c2ccccc2C(=O)c2c1ccc(O)c2O [Alizarin],inactive: 38.6%
22,CCCCC(F)(F)C(=O)CC[C@H]1[C@H](O)CC(=O)[C@@H]1CCCCCCC(=O)O [Lubiprostone],inactive: 45.4%
23,NNc1nncc2ccccc12 [Hydralazine],inactive: 35.5%

row,SMILES,percentage of GFP+
1,C[C@H](CCC(=O)O)[C@H]1CC[C@H]2[C@@H]3[C@H](O)C[C@@H]4C[C@H](O)CC[C@]4(C)[C@H]3CC[C@]12C [Chenodeoxycholic Acid],inactive: 38%
2,COc1cc(/C=C/C(=O)/C=C(O)/C=C/c2ccc(O)c(OC)c2)ccc1O,inactive: 38.1%
3,Cc1ccc(NC(=O)C2(c3ccc4c(c3)OC(F)(F)O4)CC2)nc1-c1cccc(C(=O)O)c1 [Lumacaftor],inactive: 35.2%
4,CCCS(=O)c1ccc2[nH]c(NC(=O)OC)nc2c1 (stereo not given) [Albendazole Oxide],inactive: 41.8%
5,Cc1c(CN2CCN(C(=O)[C@H](C)O)CC2)sc2c(N3CCOCC3)nc(-c3cnc(N)nc3)nc12,inactive: 34.5%
6,COc1cc(Nc2ncc(F)c(Nc3ccc4c(n3)N(COP(=O)(O)O)C(=O)C(C)(C)O4)n2)cc(OC)c1OC [Fostamatinib],inactive: 30.6%
7,CC(C)(C)Cn1c(N)nc2ccc(-c3[nH]c(C(C)(C)C)nc3-c3ccc(F)cc3)nc21,inactive: 49.3%
8,CC(C)OC(=O)C1=CN(C(=O)c2ccc(F)c(F)c2)CC(C)(C)c2c1[nH]c1ccccc21,inactive: 45.9%
9,Oc1cc(O)cc(/C=C/c2ccc(O)c(O)c2)c1 [Piceatannol],inactive: 46.1%
10,Clc1cccc(Cl)c1NC1=NCCN1 [Clonidine],inactive: 51.5%
11,CN1[C@@H]2CC[C@H]1C[C@@H](OC(=O)C(O)c1ccccc1)C2 (stereo not given in full) [Homatropine Bromide],inactive: 40.7%
12,CC(=O)Oc1cccc2c1C(=O)c1c(OC(C)=O)cc(C(=O)O)cc1C2=O [Diacerin],inactive: 41.3%
13,CC(C)n1nc(-c2cc3cc(O)ccc3[nH]2)c2c(N)ncnc21,inactive: 33.7%
14,CCC(=O)NCC[C@@H]1CCc2ccc3c(c21)CCO3 [Ramelteon],inactive: 56%
15,Cc1nc2n(c(=O)c1CCN1CCC(c3noc4cc(F)ccc34)CC1)CCCC2 [Risperidone],inactive: 42.6%
16,CCc1oc2ccccc2c1C(=O)c1cc(Br)c(O)c(Br)c1 [Benzbromarone],inactive: 50.5%
17,CC(=O)Nc1ccc(C(=O)Nc2ccccc2N)cc1 [Tacedinaline],inactive: 34.9%
18,CN(C)CCCOc1nn(Cc2ccccc2)c2ccccc12 [Benzydamine],inactive: 38.8%
19,CNCC[C@@H](Oc1ccccc1C)c1ccccc1 [Atomoxetine],inactive: 47.9%
20,CC(=O)Nc1ncc([N+](=O)[O-])s1 [Nithiamide],inactive: 45.2%
21,CN(C)CCOC(C)(c1ccccc1)c1ccccn1 (stereo not given) [Doxylamine],inactive: 42.9%
22,COc1cc2nc(N3CCN(C(=O)C4COc5ccccc5O4)CC3)nc(N)c2cc1OC (stereo not given) [Doxazosin],inactive: 44.1%
